# Source: article PMC4336329 (PLoS ONE, 2015)
# Among all 310,000 compounds or so, about 14,000 (4.5%) showed an effect of 50% or more. Effects have a minus sign here. This is one part of the list.
# Biological target: human ether-à-go-go-related gene (hERG) potassium channel (human, UniProt Q12809)
# Experiment: primary screen, population patch clamp on CHO cells stably expressing hERG
# 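Further: peak tail current of the secondary pulse compared with the same well before compound.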
# Chain of human ether-à-go-go-related gene (hERG) potassium channel (Q12809 whole entry, looked up): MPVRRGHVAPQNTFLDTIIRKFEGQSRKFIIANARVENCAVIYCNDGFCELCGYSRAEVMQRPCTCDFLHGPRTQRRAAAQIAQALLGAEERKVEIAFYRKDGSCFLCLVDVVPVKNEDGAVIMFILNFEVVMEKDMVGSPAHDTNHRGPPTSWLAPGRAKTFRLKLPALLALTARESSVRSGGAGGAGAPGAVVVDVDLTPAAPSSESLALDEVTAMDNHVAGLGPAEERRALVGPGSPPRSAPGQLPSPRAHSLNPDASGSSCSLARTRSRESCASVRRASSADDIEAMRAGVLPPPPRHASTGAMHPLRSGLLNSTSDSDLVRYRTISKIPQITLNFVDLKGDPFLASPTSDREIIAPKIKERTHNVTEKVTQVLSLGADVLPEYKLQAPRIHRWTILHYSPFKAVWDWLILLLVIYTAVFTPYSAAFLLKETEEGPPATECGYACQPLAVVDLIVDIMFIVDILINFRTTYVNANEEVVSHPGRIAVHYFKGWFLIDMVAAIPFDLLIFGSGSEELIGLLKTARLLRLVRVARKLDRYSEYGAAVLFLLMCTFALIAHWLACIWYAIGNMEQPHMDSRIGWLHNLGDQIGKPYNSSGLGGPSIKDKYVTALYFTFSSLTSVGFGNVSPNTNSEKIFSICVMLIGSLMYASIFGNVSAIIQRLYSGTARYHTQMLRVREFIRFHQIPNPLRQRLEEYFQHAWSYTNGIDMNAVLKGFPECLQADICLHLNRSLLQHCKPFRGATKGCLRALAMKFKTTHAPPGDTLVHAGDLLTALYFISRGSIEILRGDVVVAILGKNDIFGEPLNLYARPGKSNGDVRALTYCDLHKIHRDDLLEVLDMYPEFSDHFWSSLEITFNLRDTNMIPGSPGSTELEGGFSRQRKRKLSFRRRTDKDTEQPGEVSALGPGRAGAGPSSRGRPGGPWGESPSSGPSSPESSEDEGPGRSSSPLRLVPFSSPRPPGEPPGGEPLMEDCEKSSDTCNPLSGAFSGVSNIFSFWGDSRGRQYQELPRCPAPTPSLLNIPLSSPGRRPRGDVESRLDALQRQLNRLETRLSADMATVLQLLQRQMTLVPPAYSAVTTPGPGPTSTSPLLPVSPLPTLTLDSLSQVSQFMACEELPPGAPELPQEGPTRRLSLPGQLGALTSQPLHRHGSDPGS
row,Structure (SMILES),"hERG current change (%, negative = inhibition) at 10uM"
1,COc1ccc(/C=N/N=C/c2ccc(OC)cc2)cc1,14%
2,CCC(C)N(C)Cc1cccc(C2(O)CCN(S(=O)(=O)c3ccc(F)c(C)c3)CC2)c1 (stereo not shown),-72.4%
3,CSCCC(NC(=O)c1ccco1)C(=O)NCCc1ccc(F)cc1 (stereo not shown),-16.9%
4,Cc1[nH]c2ccccc2c1/C=N/NC(=O)CNC(=O)c1ccc2c(c1)OCCO2,13.6%
5,CCOC(=O)c1ccccc1N/C=C/C(=O)c1ccccc1,1.02%
6,COc1cccc(NC(=O)Cc2ccccc2)c1,-3.98%
7,S=C(NCC1CCCO1)N1CCc2ccccc2C1 (stereo not shown),13.3%
8,Cc1nc2c(-c3ccccc3)c(C)nn2c(C)c1CCC(=O)N1CCOCC1,-33.9%
9,CCOC(=O)C1CCCN(CC(=O)NC2CC2)C1.O=C(O)C(=O)O (stereo not shown),-1.4%
10,Cc1sc(NC(=O)CS(=O)(=O)c2ccccc2)c(C#N)c1C,12%
11,COCCN(CC(=O)Nc1cccc(C)c1C)C(=O)c1cc(-c2ccncc2)nc2ccccc12,-57.3%
12,COc1ccccc1CNS(=O)(=O)c1cccc2nsnc12,10.3%
13,CC(=O)Nc1ccc(S(=O)(=O)NC2(C(F)(F)F)NC(=O)N(c3ccccc3F)C2=O)cc1 (stereo not shown),28.3%
14,COC(=O)c1cccc(C23CC4(C2)[C@H](CN(Cc2cccnc2)[C@@H]4c2ccccc2)C3c2ccc(C(F)(F)F)cc2)c1 (stereo partly shown),-0.693%
15,C[C@H]1CC[C@@H]2N(C1)C[C@H]1[C@@H]3C[C@H]4[C@@H](CC(=O)[C@H]5C[C@@H](O)CC[C@@]54C)[C@@H]3CC[C@H]1[C@]2(C)O.Cl,14.9%
16,Cc1cccnc1NC(=O)CNC(=O)COc1ccccc1,6.69%
17,Cc1c(N2C(=O)c3ccccc3C2(O)c2ccccc2)c(=O)n(-c2ccccc2)n1C (stereo not shown),6.85%
18,CSCc1c(C(=O)NCCc2ccccn2)oc2ccccc12,-15.5%
19,CC(C(=O)NC1CCCCC1)N1C(=O)c2cccc3cccc1c23 (stereo not shown),-5.64%
20,Cc1ccccc1NS(=O)(=O)c1nnc(NC(=O)CC(C)C)s1,14.4%
21,O=C(OCC(=O)c1cccc2ccccc12)c1ccc(CO)cc1,-13.5%
22,COc1cc(C2C(C#N)=C(N)Oc3n[nH]c(-c4cccs4)c32)cc(OC)c1O (stereo not shown),16.2%

row,Structure (SMILES),"hERG current change (%, negative = inhibition) at 10uM"
1,CC(C)CN(C(=O)CSc1ncnc2sccc12)C1CCS(=O)(=O)C1 (stereo not shown),0.687%
2,CCN(CC(=O)NCc1cccs1)C(=O)c1cccc(S(=O)(=O)N2CCc3ccccc32)c1,-71.3%
3,Cc1ccc(CN2CCN(/N=C/c3cccnc3)CC2)c(C)c1,-47.5%
4,COc1cc(C=O)c(-c2c(C=O)cc(OC)c3c2OCO3)c2c1OCO2,-5.96%
5,Cc1cc(=O)[nH]c(SCc2csc(-c3ccccc3)n2)n1,-10.8%
6,CCCCNC(=O)n1c(SC)nc2ccccc21,3.02%
7,Cc1ccc(NC(=O)CN(C)S(=O)(=O)c2cccc3nsnc23)cc1Cl,-18.2%
8,Cc1ccc(N2CC(C(=O)N3CCC(C(=O)NCCCOC(C)C)CC3)CC2=O)cc1 (stereo not shown),12%
9,Cl.O=C(c1ccco1)N1CCN(CCOCCOc2cccc3ccccc23)CC1,-62.5%
10,CCc1c(C)nc2ncnn2c1N1CCCC(C(=O)NCc2ccco2)C1 (stereo not shown),-30.1%
11,Cn1ccnc1P(=S)(c1nccn1C)N1CCOCC1,7.32%
12,CC1CCN(c2nc(N3CCCCC3)nc(N3CCCCC3)n2)CC1,9.57%
13,Cc1cccc(C)c1OCC(O)CNC(C)c1ccccc1.Cl (stereo not shown),-13.7%
14,CC(C)(CNC(=O)Cc1ccc(Cl)cc1Cl)N1CCOCC1,5.05%
15,COc1ccc(NC(=O)CN(C)C(=O)C(C)N2C(=O)c3ccccc3C2=O)cc1 (stereo not shown),-8.54%
16,COc1ccccc1OCCNC(=O)CCNC(=O)c1ccccc1Cl,16.5%
17,O=C(CCCn1c(=O)[nH]c2ccsc2c1=O)NCc1cccs1,4.11%
18,Cc1ccc(O)c(CO)n1,4.86%
19,O=C(COC(=O)c1c2c(nc3ccccc13)CCCC2)c1cccs1,1.14%
20,COc1ccc(N(CC(=O)Nc2ccc(OC)c(Cl)c2)S(=O)(=O)c2c(C)noc2C)cc1,-1.44%
21,Oc1ccc(N=Nc2ccccc2-c2nn[nH]n2)c(O)c1,-4.56%
22,Cc1ccc(-c2cc(C(=O)N3CC(C)CC(C)C3)c3ccccc3n2)o1 (stereo not shown),-16.6%

row,Structure (SMILES),"hERG current change (%, negative = inhibition) at 10uM"
1,CCOc1ccc(N2CC(C(=O)Nc3cccc(S(=O)(=O)NC4=NCCC4)c3)CC2=O)cc1 (stereo not shown),-3.05%
2,CC(=O)N1c2c(cc(Br)cc2S(=O)(=O)NCc2ccccc2)CC1C (stereo not shown),-35.5%
3,O=C(Nc1ccc(Nc2ccccc2)cc1)C1CC1,-6.15%
4,COc1ccccc1-n1c(-c2ccc(NS(C)(=O)=O)cc2)n[nH]c1=S,19.1%
5,CSC1=N/C(=C\c2ccccc2Cl)C(=O)N1N(C)C,-0.445%
6,Cn1c(CN2CCN(c3ccc(Cl)cc3)CC2)nc2ccccc21,-14.3%
7,CN(/N=C/c1cc(Cl)ccc1O)C1=NS(=O)(=O)c2ccccc21,23.2%
8,CCOc1ccccc1-c1cc(C(=O)N/N=C/c2ccc(O)c(OC)c2)c2ccccc2n1,-31.1%
9,CC1CCCCC1NC(=O)CNC(=O)c1ccco1 (stereo not shown),3.15%
10,Nc1c(C(=O)NCc2ccc3c(c2)OCO3)nnn1-c1ccc(OC(F)(F)F)cc1,-0.473%
11,COCCCNC(=O)C(=O)NCC1CCCN1S(=O)(=O)c1cccs1 (stereo not shown),-9.53%
12,COc1ccc(-c2onc(C)c2-c2ccc3c(c2)OCCO3)c(O)c1,-17.4%
13,Cc1cccc(NC(=O)COc2nsnc2N2CCOCC2)c1,-0.66%
14,COc1cc(NC(=O)c2cccc(C)c2)c(OC)cc1NC(=O)CN1CCCCC1,-19.7%
15,CC(=O)Nc1ccc(S(=O)(=O)Nc2ccc(S(=O)(=O)N3CCCC3)cc2)cc1,3.62%
16,CC(=O)Nc1ccc(SCC(=O)N(CCC#N)c2cc(C)cc(C)c2)cc1,-4.49%
17,CC1CCCCC1NC(=O)Cc1ccc(S(=O)(=O)N2CCOCC2)s1 (stereo not shown),-22.3%
18,CCN(CCNCC(O)COc1ccccc1C(C)C)c1cccc(C)c1.O=C(O)C(=O)O (stereo not shown),-45.4%
19,CC(=O)Nc1ccc(-c2csc(NCCc3ccccc3)n2)cc1,14.8%
20,CCOC(=O)c1c(C)c(C(=O)NCc2ccccc2OC)c(C)n1C,-13.8%
21,CC(C)(C)c1cc(CN(CCO)CCO)c(O)c(C(C)(C)C)c1,-42.3%
22,Cc1ccc(OCC(=O)Oc2c(C)cccc2C)cc1C,14.9%

row,Structure (SMILES),"hERG current change (%, negative = inhibition) at 10uM"
1,CC(C)(C)C(=O)NC1CC2CCCC(C1)N2C(=O)Nc1ccccc1F (stereo not shown),22.5%
2,O=C(NC(=S)NCCCN1CCOCC1)c1ccc(Br)cc1,-42.9%
3,Cc1nn(-c2ccccc2)c(Cl)c1C(=O)N(C)c1nc(-c2ccc(F)cc2)cs1,15.9%
4,Cc1ccc(C(=O)OCC(=O)NCC(F)(F)F)cc1C,5.6%
5,Cl.O=C(NC1CCN(Cc2ccccc2)CC1)c1cccc(OC(F)F)c1,-74.1%
6,CCCCn1nc(C(=O)O)ccc1=O,20.4%
7,COc1ccccc1CNC(=O)C(C)n1cccc1C(=O)c1ccccc1 (stereo not shown),2.18%
8,COc1ccc(-n2c(C)cc(C)c(C(C)=O)c2=S)cc1,-2.39%
9,CC[C@@]12C(=O)N(c3cccc(Cl)c3)C(=O)N1[C@H](c1ccc(Br)cc1)[C@@H]1C(=O)N(C(C)(C)C)C(=O)[C@@H]12,-6.81%
10,CCOc1ccccc1N1CCN(C(=O)NC(C)c2ccc(F)c(F)c2)CC1 (stereo not shown),11.9%
11,CCOC(=O)NN1C(=O)c2ccccc2NC1c1ccc(OC)cc1 (stereo not shown),9.73%
12,O=C(Nc1ccc2oc(=O)ccc2c1)c1ccc(-c2ccc(Cl)cc2)o1,3.37%
13,COc1ccc(S(=O)(=O)N(CC(=O)Nc2cc(C)on2)Cc2ccccc2)cc1,16.8%
14,Cc1cc(NC(=O)C(C)C)ncc1NC(=O)CCc1ccccc1,-3.36%
15,COc1ccc(OCCOC(=O)c2[nH]c(C)c(C(C)=O)c2C)cc1,10.2%
16,O=c1cc(-c2ccc(Cl)cc2)[nH][nH]1,-1.64%
17,COc1ccc(C[C@@H]2CN3C(=NC[C@@H]3C)N2C[C@H](C)NC(=O)CCC2CCCCC2)cc1,-67.4%
18,Cn1c(C(=O)N2CCCc3ccccc32)cc2sccc21,-14.8%
19,COc1ccc2[nH]cc(/C=C/c3cc[n+](C)cc3)c2c1.[I-],14.9%
20,CN1C(=O)N(C)C(=O)C2(Cc3c(nc4ccccn4c3=O)N3CCc4ccccc4C32)C1=O (stereo not shown),-6.12%
21,CCC(=O)Nc1ccc(S(=O)(=O)Nc2c(NC)c3ccccc3oc2=O)cc1,22.4%
22,CC(NC(=O)COC(=O)/C=C/c1cccc(C(F)(F)F)c1)c1ccccc1 (stereo not shown),15.2%
